Measurements published in the supplement of paper PMC7826260.
The other results are listed elsewhere or left out. Each Rep nickase domain was tested in vitro on the same pool of single strands at 3 µM enzyme and 37 °C for 1 h; the strands have 90 letters, of which the middle is given. Numbers give uncut DNA relative to the enzyme-free pool, as log2; strong cutting gives strongly negative numbers. There is no active / inactive call. Reads are scaled to the total; values above 0 arise when much of the pool is cut.

Columns and labels:
Test in all cases: uncleaved DNA left, log2 of reads against the no-enzyme library (log2 ratio); higher = less cleavage (more negative = more Rep cleavage of the k-mer); sequences stand for … in CTCGTCCG…ACCGGAGA
[1] = system: T1, Rep nickase domain of Muscovy duck circovirus
T1 sequence (protein, residues 1-111, tag omitted): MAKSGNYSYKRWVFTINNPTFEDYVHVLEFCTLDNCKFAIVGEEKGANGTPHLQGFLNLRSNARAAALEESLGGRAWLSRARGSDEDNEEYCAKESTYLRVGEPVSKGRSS
Method: (§1)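 A pool of 90-nt single-stranded DNAs with seven random bases just before the constant AC of the nick site (name = the seven bases) was cut by 3 µM recombinant His6-SUMO-tagged Rep nickase domain (300 nM DNA, 50 mM HEPES pH 8.0, 50 mM NaCl, 1 mM MnCl2, 1 h, 37 °C, three replicates). Uncut DNA was amplified and sequenced.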

[2] = system: T2, Rep nickase domain of banana bunchy top virus
T2 sequence (protein, residues 1-94, tag omitted): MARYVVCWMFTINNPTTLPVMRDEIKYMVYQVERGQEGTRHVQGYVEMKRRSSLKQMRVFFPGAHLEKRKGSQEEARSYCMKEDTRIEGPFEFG
Method: as §1

[3] = system: T3, Rep nickase domain of cabbage leaf curl virus
T3 sequence (protein, residues 1-116, tag omitted): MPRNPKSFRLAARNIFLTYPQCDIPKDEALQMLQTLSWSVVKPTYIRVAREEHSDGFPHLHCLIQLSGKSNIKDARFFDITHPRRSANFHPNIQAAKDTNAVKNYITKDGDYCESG
Method: as §1

[4] = system: T4, Rep nickase domain of chickpea chlorotic dwarf virus
T4 sequence (protein, residues 1-124, tag omitted): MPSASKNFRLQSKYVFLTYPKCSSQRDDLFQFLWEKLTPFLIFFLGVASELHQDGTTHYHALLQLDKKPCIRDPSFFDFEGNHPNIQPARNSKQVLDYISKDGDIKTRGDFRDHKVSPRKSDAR
Method: as §1

[5] = system: T5, Rep nickase domain of faba bean necrotic yellows virus
T5 sequence (protein, residues 1-98, tag omitted): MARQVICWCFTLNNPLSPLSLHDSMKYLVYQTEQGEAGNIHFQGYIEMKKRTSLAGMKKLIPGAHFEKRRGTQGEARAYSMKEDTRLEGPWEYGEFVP
Method: as §1

[6] = system: T6, Rep nickase domain of maize striate mosaic virus
T6 sequence (protein, residues 1-117, tag omitted): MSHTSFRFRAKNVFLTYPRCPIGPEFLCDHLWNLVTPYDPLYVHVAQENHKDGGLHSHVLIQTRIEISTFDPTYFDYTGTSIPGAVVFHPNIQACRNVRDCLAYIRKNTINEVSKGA
Method: as §1

[7] = system: T7, Rep nickase domain of porcine circovirus 2
T7 sequence (protein, residues 2-116, tag omitted): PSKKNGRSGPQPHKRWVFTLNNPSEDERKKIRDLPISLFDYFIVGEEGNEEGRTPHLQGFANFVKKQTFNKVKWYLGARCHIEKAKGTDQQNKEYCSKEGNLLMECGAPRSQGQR
Method: as §1

[8] = system: T8, Rep nickase domain of tomato golden mosaic virus
T8 sequence (protein, residues 1-124, tag omitted): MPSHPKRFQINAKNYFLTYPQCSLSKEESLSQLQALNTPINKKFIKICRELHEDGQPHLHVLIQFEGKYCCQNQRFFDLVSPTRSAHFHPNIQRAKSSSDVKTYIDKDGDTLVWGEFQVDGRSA
Method: as §1

[9] = system: T9, Rep nickase domain of tomato yellow leaf curl virus
T9 sequence (protein, residues 1-136, tag omitted): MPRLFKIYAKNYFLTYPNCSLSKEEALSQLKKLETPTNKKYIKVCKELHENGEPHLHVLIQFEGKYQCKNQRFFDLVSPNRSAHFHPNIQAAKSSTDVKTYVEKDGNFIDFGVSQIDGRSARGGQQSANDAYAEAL
Method: as §1

[10] = system: T10, Rep nickase domain of wheat dwarf virus
T10 sequence (protein, residues 1-137, tag omitted): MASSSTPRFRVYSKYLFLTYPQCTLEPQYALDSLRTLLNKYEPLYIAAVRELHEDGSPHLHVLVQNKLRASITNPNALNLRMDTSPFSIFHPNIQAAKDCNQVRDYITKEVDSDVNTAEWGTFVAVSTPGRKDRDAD
Method: as §1

Sequence | uncleaved DNA left (log2) [1] | uncleaved DNA left (log2) [2] | uncleaved DNA left (log2) [3] | uncleaved DNA left (log2) [4] | uncleaved DNA left (log2) [5] | uncleaved DNA left (log2) [6] | uncleaved DNA left (log2) [7] | uncleaved DNA left (log2) [8] | uncleaved DNA left (log2) [9] | uncleaved DNA left (log2) [10]
ATGTACA | -0.0807 | -0.0463 | -0.17 | -1.98 | -0.0344 | -0.471 | -0.401 | -0.021 | 0.019 | -0.00627
GCGAGGT | 0.0528 | 0.0249 | 0.14 | 0.626 | 0.128 | 1.32 | 0.061 | 0.083 | 0.0425 | 0.136
GTCAGGG | 0.103 | 0.143 | 0.313 | 0.848 | 0.0727 | 1.35 | 0.241 | 0.25 | 0.0668 | 0.191
CAACGTC | -0.0322 | -0.116 | -0.204 | -0.949 | -0.0301 | -0.895 | -0.0866 | -0.136 | -0.166 | -0.183
ACTTGAG | -0.0899 | -0.0289 | -0.548 | 0.636 | 0.00647 | -0.0302 | 0.13 | -0.0943 | 0.0824 | -0.0895
GCGCACA | 0.0665 | 0.0822 | 0.146 | 0.441 | 0.0718 | 0.808 | 0.189 | -0.0802 | 0.136 | 0.13
AATAGCG | -0.0973 | -0.0478 | -0.616 | 0.811 | -0.0493 | -0.24 | 0.00681 | -0.123 | 0.0118 | -0.144
GTTTACT | -1.59 | 0.00505 | 0.308 | 0.26 | 0.0704 | 1.65 | -2.07 | 0.0817 | 0.0468 | -0.00798
CGGGGTC | -0.0428 | -0.0301 | 0.592 | 0.984 | -0.000664 | 1.82 | 0.136 | 0.0268 | -0.0598 | -0.00745
CCGGCAA | -0.0945 | -0.0541 | 0.165 | 0.178 | -0.0624 | -0.0736 | -0.162 | -0.0853 | -0.048 | -0.0556
ATGTCTA | -0.0127 | -0.172 | -0.132 | -1.15 | -0.0443 | -0.518 | -0.361 | 0.0352 | 0.0152 | 0.0317
AAAAGGC | 0.0604 | 0.091 | -0.0433 | -0.0758 | 0.088 | -0.781 | 0.221 | 0.159 | 0.0831 | 0.107
TGCTAGC | 0.114 | 0.0512 | 0.253 | 0.528 | 0.0178 | 0.441 | 0.139 | 0.143 | 0.131 | -0.088
TCATGAC | -0.0011 | -0.0739 | -0.0166 | 0.0635 | -0.00299 | -0.432 | 0.0612 | 0.055 | -0.0076 | -0.0252
TAGGGTG | -0.0202 | -0.0207 | -0.374 | -0.476 | 0.0568 | -0.528 | 0.0424 | 0.0378 | 0.0419 | -0.114
GCTCCGT | 0.00873 | 0.015 | -0.113 | 0.0529 | -0.122 | -0.303 | 0.0619 | -0.0469 | 0.0353 | 0.0127
CTTGTGG | 0.0633 | 0.104 | 0.311 | 1.04 | -0.026 | 0.652 | 0.101 | 0.0259 | 0.0956 | 0.0906
GTCCTTG | -0.104 | 0.0242 | 0.27 | 0.668 | -0.0839 | 1.69 | 0.0325 | 0.123 | 0.0528 | -0.0539
ATCCACC | -0.0286 | -0.133 | -0.06 | -0.527 | -0.163 | -0.618 | -0.243 | -0.0746 | -0.138 | -0.142
AGTGAGG | -0.0274 | -0.00472 | 0.0149 | 0.718 | -0.0488 | 1.34 | 0.0493 | 0.117 | -0.0296 | 0.000665
GTGTCTT | -0.0441 | -0.0622 | 0.376 | 0.774 | -0.101 | 1.72 | -2.04 | -0.0418 | 0.0262 | 0.114
AGAACAT | 0.141 | 0.218 | 0.747 | 1.67 | -0.0526 | 1.91 | 0.215 | 0.064 | 0.0859 | 0.246
ACCATCC | -0.0164 | 0.0206 | -0.266 | -0.393 | 0.171 | -0.9 | 0.136 | 0.0333 | -0.0169 | -0.0446
TGATAGA | 0.145 | 0.0888 | 0.0957 | -0.137 | 0.123 | -0.756 | 0.203 | -0.0258 | 0.0403 | 0.0609
TTGCAGC | -0.0435 | -0.125 | -0.926 | -0.437 | -0.0572 | -1.14 | 0.103 | -0.0842 | -0.125 | -0.093
TAGAACC | -0.0649 | 0.111 | 0.148 | -0.423 | -0.0817 | 0.0178 | -0.521 | -0.126 | 0.061 | 0.0196
TATCGTC | 0.257 | 0.0702 | 0.0667 | -0.253 | 0.00905 | -1.05 | 0.0614 | -0.0109 | 0.0469 | 0.121
TCGATCT | 0.0321 | 0.0711 | 0.105 | -0.82 | 0.0573 | 0.482 | -0.151 | -0.0267 | 0.0456 | 0.181
ATCAAGG | -0.00871 | 0.0299 | 0.33 | 1.23 | -0.0452 | 0.593 | 0.135 | 0.0173 | -0.0476 | 0.0113
